Experimental data reported in article PMC4336329 (PLoS ONE, 2015).
About 2,200 (0.71%) of roughly 310,000 compounds showed an effect of 50% or more. Effects have a minus sign here. The list shows a part of the results.

target: human ether-à-go-go-related gene (hERG) potassium channel (human, UniProt Q12809); assay: primary screen, population patch clamp on CHO cells stably expressing hERG
Sequence (Q12809 whole entry, looked up): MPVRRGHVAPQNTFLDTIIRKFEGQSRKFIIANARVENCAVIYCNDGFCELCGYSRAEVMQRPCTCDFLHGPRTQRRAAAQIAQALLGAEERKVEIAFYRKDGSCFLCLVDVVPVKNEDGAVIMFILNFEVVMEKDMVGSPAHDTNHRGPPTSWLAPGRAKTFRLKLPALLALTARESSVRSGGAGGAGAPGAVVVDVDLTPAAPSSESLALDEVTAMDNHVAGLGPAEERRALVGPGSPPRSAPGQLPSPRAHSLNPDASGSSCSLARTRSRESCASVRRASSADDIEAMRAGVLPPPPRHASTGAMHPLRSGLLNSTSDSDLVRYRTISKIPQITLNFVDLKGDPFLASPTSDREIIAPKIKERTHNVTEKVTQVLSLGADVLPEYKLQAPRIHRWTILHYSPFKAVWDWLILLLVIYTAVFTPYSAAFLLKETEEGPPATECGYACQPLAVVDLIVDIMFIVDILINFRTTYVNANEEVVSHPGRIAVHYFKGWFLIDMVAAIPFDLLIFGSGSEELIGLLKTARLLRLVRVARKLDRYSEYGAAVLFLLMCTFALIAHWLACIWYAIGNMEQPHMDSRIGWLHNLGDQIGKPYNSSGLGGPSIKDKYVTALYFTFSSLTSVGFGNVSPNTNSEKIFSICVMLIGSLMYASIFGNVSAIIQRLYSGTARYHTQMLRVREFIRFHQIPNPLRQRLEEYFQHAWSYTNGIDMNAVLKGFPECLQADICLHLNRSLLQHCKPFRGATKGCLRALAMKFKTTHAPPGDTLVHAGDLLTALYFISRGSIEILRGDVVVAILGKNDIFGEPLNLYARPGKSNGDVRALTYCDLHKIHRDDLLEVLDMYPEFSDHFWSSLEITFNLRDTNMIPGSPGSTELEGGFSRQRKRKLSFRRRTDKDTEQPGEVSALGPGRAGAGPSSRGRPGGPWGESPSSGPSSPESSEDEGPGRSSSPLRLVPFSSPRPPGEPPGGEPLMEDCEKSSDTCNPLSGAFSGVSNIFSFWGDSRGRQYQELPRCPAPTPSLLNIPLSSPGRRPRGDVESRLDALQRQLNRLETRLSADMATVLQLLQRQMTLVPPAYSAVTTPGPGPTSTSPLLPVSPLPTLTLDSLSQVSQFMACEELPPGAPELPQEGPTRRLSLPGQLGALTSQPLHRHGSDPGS

First: O=C(CSc1nnc(-c2ccc(Br)cc2)o1)Nc1cccc2ccccc12
Second: O=C(Cn1nc(-c2ccccc2)ccc1=O)NCc1ccc(F)cc1
The “hERG current change (%, negative = inhibition) at 1uM” value of the first is lower: 1.45% for the first, 2.01% for the second.

Compared with `c1ccc(NC2=NCCN2CCC2CCCC2)cc1`, `S=C1NC[C@H](c2ccccc2)N1CCCCC1CCCCC1` is higher in “hERG current change (%, negative = inhibition) at 1uM” value: -7.24% for the first, 12.9% for the second.

Going from `COc1ccc2cc(C(c3nnnn3C(C)(C)C)N3CCSCC3)c(=O)[nH]c2c1` (centres unmarked) to `CCOC(=O)C1CCCN(c2ncnc3c2cnn3-c2ccc(OC)cc2)C1` (centres unmarked), the “hERG current change (%, negative = inhibition) at 1uM” value falls from 6.18% to -3.74%.

First: Cn1c(=O)n(C)c2cc([N+](=O)[O-])c(N3CCN(C(=O)c4cccc(F)c4)CC3)cc21
Second: O=C(CCc1nc2sc3c(c2c(=O)[nH]1)CCCC3)N1CCN(c2ccccc2)CC1
The “hERG current change (%, negative = inhibition) at 1uM” value of the first is lower: -7.87% for the first, 2.09% for the second.

First: COc1cc(C(=O)Nc2ccc(NC(=O)c3ccccc3Cl)nc2)cc(OC)c1OC
Second: COc1ccc(C(=O)n2nc(-c3ccccc3)nc2N)cc1OC
The “hERG current change (%, negative = inhibition) at 1uM” value of the first is lower: 10.9% for the first, 15.7% for the second.

Going from `CN1CCC(N(C)C(=O)c2cccc(S(=O)(=O)N3CCOCC3)c2)CC1.Cl` to `Cc1ccc(N(C)C(=O)c2cc(S(=O)(=O)N3CCCCC3)c[nH]2)cc1`, the “hERG current change (%, negative = inhibition) at 1uM” value falls from 14.4% to 10.8%.

Going from `CCC1CCCCN1C(=O)CSc1nnc2nc(C)cc(C)n12` (centres unmarked) to `CC(Sc1nnc(CN2CCCC2)n1Cc1ccccc1)C(=O)Nc1ccccc1` (centres unmarked), the “hERG current change (%, negative = inhibition) at 1uM” value falls from 8.62% to -25.1%.

First: O=C(CCCSc1nc2ccccc2[nH]1)N1CCN(c2ccccc2)CC1
Second: CN(C)C(=O)CSc1nnc(Cc2ccccc2)n1Cc1ccco1
The “hERG current change (%, negative = inhibition) at 1uM” value of the first is lower: -32.8% for the first, 9.15% for the second.

First: O=C(Cc1ccc(Cl)cc1)Nc1ccc(Br)cn1
Second: CCN(CC(=O)Nc1ccc(OC)cc1)C(=O)c1ccc(Cl)c(S(=O)(=O)N2CCCC2)c1
The “hERG current change (%, negative = inhibition) at 1uM” value of the first is higher: 14% for the first, 11.9% for the second.

First: CCN(CC)CC(=O)n1c2c(c3ccccc31)CCCC2
Second: Cc1ccc(OCCSc2nc3ccccc3n2CC(=O)O)c(C(C)C)c1
The “hERG current change (%, negative = inhibition) at 1uM” value of the first is lower: -5.57% for the first, -1.26% for the second.

Going from `COc1ccc(CNC(=O)COc2cc(O)c3c(c2)OC(C)(C)CC3=O)c(OC)c1` to `COc1ccc(OC)c(-n2nnnc2SCC(=O)NCCc2ccccc2)c1`, the “hERG current change (%, negative = inhibition) at 1uM” value rises from -3.43% to 0.177%.

Going from `CCC(=O)N1CCNC(=O)C1CC(=O)Nc1ccc(C)c(Cl)c1` (centres unmarked) to `O=C(CC1SCCNC1=O)Nc1cccc(C(F)(F)F)c1` (centres unmarked), the “hERG current change (%, negative = inhibition) at 1uM” value falls from -0.756% to -3.68%.

Going from `O=C(CCC1=NS(=O)(=O)c2ccccc2N1)NC1CCCCCCC1` to `N#CC1=C(N)c2ccccc2CC12CCCCC2`, the “hERG current change (%, negative = inhibition) at 1uM” value falls from 19.7% to 11.9%.

First: CC(C)n1cnc2c(Nc3cccc(Cl)c3)nc(N(CCO)CCCO)nc21
Second: CNS(=O)(=O)c1cccc2cccnc12
The “hERG current change (%, negative = inhibition) at 1uM” value of the first is lower: 1.73% for the first, 13.5% for the second.

Compared with `COC(=O)c1ccc(OCC(O)CN2CCOCC2)cc1` (centres unmarked), `COc1ccc(NC(=O)CN2CCN(S(=O)(=O)N3CCCCCC3)CC2)cc1` is lower in “hERG current change (%, negative = inhibition) at 1uM” value: 12.2% for the first, -60.8% for the second.

First: C/C(CCS(=O)(=O)c1ccccc1)=N/O
Second: CC(=O)N1CCc2cc(S(=O)(=O)CCC(=O)NCc3ccc(C)o3)ccc21
The “hERG current change (%, negative = inhibition) at 1uM” value of the first is lower: 12.5% for the first, 27.5% for the second.

Going from `CC(CNS(=O)(=O)c1cc(Cl)ccc1Cl)CN(C)C` (centres unmarked) to `CCCNC(=O)c1cccc(Cn2cc(Br)c([N+](=O)[O-])n2)c1`, the “hERG current change (%, negative = inhibition) at 1uM” value falls from 16.3% to 6.4%.

First: COC(=O)CNC(=O)CSc1nc(N)cc(=O)[nH]1
Second: COC(=O)C1=C(C)N(C)C(=O)NC1c1ccsc1 (centres unmarked)
The “hERG current change (%, negative = inhibition) at 1uM” value of the first is lower: 10.3% for the first, 14.2% for the second.

Compared with `CCOc1ccc(-n2cc(-c3ccc(OC)c(OC)c3)[nH]c2=S)cc1`, `Cc1ccc(-n2[nH]c(C)c(/C=N/c3ccccn3)c2=O)cc1` is lower in “hERG current change (%, negative = inhibition) at 1uM” value: 10.3% for the first, 4.28% for the second.

Going from `O=C(c1ccc(F)cc1F)N1CCCC(c2nc(-c3ccc(F)cc3)no2)C1` (centres unmarked) to `O=C(c1ccc(N2C(=O)C3C4c5ccccc5C(c5ccccc54)C3C2=O)cc1)N1CCOCC1` (centres unmarked), the “hERG current change (%, negative = inhibition) at 1uM” value rises from 7.75% to 7.89%.

First: Cc1ccccc1N1CC(C(=O)Nc2nnc(SCc3ccccn3)s2)CC1=O (centres unmarked)
Second: COc1ccc(/C=N/NC(=O)c2ccc(O)cc2O)cc1CSc1ccccn1
The “hERG current change (%, negative = inhibition) at 1uM” value of the first is higher: 11.8% for the first, 11.7% for the second.

Compared with `CS(=O)(=O)c1ccc(C(=O)N(CCc2ccccc2)Cc2ccccc2)cc1`, `COc1ccc(/C=C(\C#N)C(=O)OCC(=O)N2CC(C)OC(C)C2)cc1` (centres unmarked) is lower in “hERG current change (%, negative = inhibition) at 1uM” value: 8.18% for the first, 5.91% for the second.
